Measured values published in PubChem BioAssay AID485294 (National Center for Advancing Translational Sciences (NCATS), 2010).
Hit rate of the full screen: of about 370,000 compounds, about 150 (0.041%) were called active. Inconclusive means that the source gave no clear call. Such entries were picked first, then a sample of the others. Calls come from the whole dose curve; as a rule, active = well fitted inhibition curve with a large enough effect; inconclusive = small, poorly fitted or top-dose-only effect; inactive = flat fitted curve, though single readings scatter. No potency is given beside an inconclusive call; the fits are too rough.

molecular target: Beta-lactamase (Escherichia coli (strain K12)) (UniProt P00811); assay: qHTS Inhibitors of AmpC Beta-Lactamase (assay with detergent); details: AmpC hydrolysis of nitrocefin, absorbance 480 nm, 0.01% Triton; activity change, negative = inhibition: at 114 µM (top of the series); note: nearly all actives have a fitted effect of over 25% in size;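 for activity change, negative = inhibition: 0% = no-compound wells and -100% = no-enzyme wells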
In short: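 AmpC (5.3 nM in the dispensed reagent) in 20 mM phosphate pH 7.0 with 0.01% (detergent screen) or 0.0001% Triton X-100 was preincubated with compounds for 15 min at room temperature. Nitrocefin was then added from an 800 uM solution, and hydrolysis was followed at 480 nm.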
Potency is the fitted concentration of half-maximal effect; tags give direction and shape of the fitted curve.

Sequence of UniProt P00811 (P00811 whole entry, looked up): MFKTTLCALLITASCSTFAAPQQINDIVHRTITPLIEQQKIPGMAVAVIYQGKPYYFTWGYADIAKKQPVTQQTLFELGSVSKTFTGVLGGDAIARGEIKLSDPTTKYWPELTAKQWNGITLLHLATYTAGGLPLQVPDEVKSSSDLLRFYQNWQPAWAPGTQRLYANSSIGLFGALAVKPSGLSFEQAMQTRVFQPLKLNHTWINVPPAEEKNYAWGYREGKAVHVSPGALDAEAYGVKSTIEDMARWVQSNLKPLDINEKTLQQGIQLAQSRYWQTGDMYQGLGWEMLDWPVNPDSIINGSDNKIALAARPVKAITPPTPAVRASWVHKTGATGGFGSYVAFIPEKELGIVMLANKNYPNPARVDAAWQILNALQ

Row | SMILES | Potency | activity change, negative = inhibition
1 | N#Cc1c2c(c(-c3ccco3)[nH]c1=O)CCCC2 | inconclusive [inhibitor, full curve] | 
2 | Cc1cccc(C)c1N(CC(=O)Nc1cc(Cl)ccc1Oc1ccccc1)S(C)(=O)=O | inconclusive [inhibitor, full curve, poor fit] | 
3 | Cc1cc(NS(=O)(=O)c2ccc(NC(=O)C(C(C)C)N3C(=O)c4ccccc4C3=O)cc2)nc(C)n1 (stereo not given) | inconclusive [inhibitor, full curve, poor fit] | 
4 | Cc1ccc(-n2c(C)cc(C(=O)COC(=O)C3=NNC(=O)CC3)c2C)cc1 |  | inactive: 3.31%
5 | Cc1ccc2nsnc2c1S(=O)(=O)N1CCN(Cc2ccc3c(c2)OCO3)CC1 |  | inactive: 1.02%
6 | N#C/C(=C\c1ccccc1[N+](=O)[O-])c1nc(C2CC2)cs1 | inconclusive [inhibitor, full curve] | 
7 | O=C(NCc1ccccn1)c1ccc(CS(=O)(=O)Cc2ccc(Cl)cc2)o1 | inconclusive [inhibitor, single point] | 
8 | COc1ccc(C2C3=C(OC(C)=O)c4ccccc4C3=Nc3c2c(=O)n(C)c(=O)n3C)cc1 (stereo not given) | inconclusive [inhibitor, single point] | 
9 | COCCNc1oc(-c2ccc(Cl)cc2)nc1C#N |  | inactive: -6.23%
10 | CC(C)(C)OC(=O)N[C@@H](Cc1ccccc1)C(=O)N[C@@H](CO)[C@H](O)[C@@H]1C[C@@H]1C(=O)N1CCCC1 | inconclusive [inhibitor, full curve, poor fit] | 
11 | Cc1cc(NC(=O)c2cc3nc(C4CC4)cc(C(F)(F)F)n3n2)no1 | inconclusive [inhibitor, partial curve] | 
12 | CCC(=O)N1CCc2cc(Br)cc(S(=O)(=O)CCC(=O)NCc3ccc(C)cc3)c21 |  | inactive: -3.52%
13 | NS(=O)(=O)c1ccc(NC(=O)CSc2nnc(Cc3cccs3)n2-c2ccccc2)cc1 | inconclusive [inhibitor, single point] | 
14 | CCCNC(=O)COC(=O)c1ccccc1C(=O)c1ccc(Cl)c([N+](=O)[O-])c1 | inconclusive [inhibitor, full curve, poor fit] | 
15 | CC1CCN(C(=O)Cn2nc(C(F)(F)F)c3c2CCCC3)CC1 | inconclusive [inhibitor, full curve, poor fit] | 
16 | O=C(NCCn1ccc2ccccc21)C1CCCCC1 |  | inactive: 3.02%
17 | CC(=O)C1=C(C)OC(N)=C(C#N)C1c1cccc([N+](=O)[O-])c1 (stereo not given) |  | inactive: -9.94%
18 | Cc1ccc(CC2SC(=O)NC2=O)cc1Cl (stereo not given) | inconclusive [inhibitor, single point] | 
19 | COc1ccc(OC)c(NS(=O)(=O)c2cc3c4c(c2)CCN4C(=O)CC3)c1 | inconclusive [inhibitor, partial curve, poor fit] | 
20 | CCOP(=O)(c1ccccc1)c1nc(-c2ccccc2Cl)oc1N1CCCCC1 (stereo not given) | inconclusive [inhibitor, single point] | 
21 | Cc1ccc(NC(=S)N(CCCN2CCOCC2)Cc2ccco2)cc1 | inconclusive [inhibitor, partial curve, poor fit] | 
22 | O=C(CN1C(=O)NC2(CCCC2)C1=O)Nc1cc(Cl)ccc1N1CCCC1 | inconclusive [inhibitor, full curve] | 

Row | SMILES | Potency | activity change, negative = inhibition
23 | O=C(c1cccc(C(=O)N(c2ccccn2)C2CCCCC2)c1)N(c1ccccn1)C1CCCCC1 |  | inactive: -7.15%
24 | O=C(c1ccc(Br)cc1)N(Cc1ccco1)C1CCS(=O)(=O)C1 (stereo not given) |  | inactive: 0.358%
25 | CCOC(=O)c1sc2nc(-c3ccccc3)ccc2c1N | inconclusive [inhibitor, full curve, poor fit] | 
26 | O=C(NCc1cccc(C(F)(F)F)c1)C1CCN(c2ncccn2)CC1 | inconclusive [inhibitor, partial curve, poor fit] | 
27 | CCc1c(C)nc2ncnn2c1N1CCCC(C(=O)NCCc2ccccc2)C1 (stereo not given) | inconclusive [inhibitor, single point] | 
28 | CC1CCc2[nH]c3ccc(C(=O)NCC4CCCO4)cc3c2C1 (stereo not given) | inconclusive [inhibitor, partial curve] | 
29 | CNc1nc(SCC(=O)Nc2ccc(Cl)c(Cl)c2)nc(N2CCOCC2)n1 | inconclusive [inhibitor, full curve, poor fit] | 
30 | O=C(O)CCc1ccc(-c2ccccc2)o1 | inconclusive [inhibitor, full curve] | 
31 | C/C=C/c1ccc(OCC(=O)Nc2ccc(OC)c(OC)c2)c(OC)c1 | inconclusive [inhibitor, full curve, poor fit] | 
32 | Cc1ccc(CCNC(=O)CCNS(=O)(=O)c2ccc3c(c2)oc(=O)n3C)cc1 | inconclusive [inhibitor, full curve, poor fit] | 
33 | CCC1(C)Cc2c(sc3nc4n(c(=O)c23)CCS4)CO1 (stereo not given) | inconclusive [inhibitor, full curve] | 
34 | COCCCn1c(SCc2nnc(-c3ccccc3)o2)nc2sc3c(c2c1=O)CCC3 | inconclusive [inhibitor, full curve, poor fit] | 
35 | Cc1ccccc1NS(=O)(=O)c1ccc(C(=O)NCCCN2CCOCC2)cc1 | inconclusive [inhibitor, full curve] | 
36 | CN(CCOC(=O)c1ccccc1)Cc1ccccc1 | inconclusive [inhibitor, full curve, poor fit] | 
37 | C#CCSc1nnc(-c2ccc(OC)cc2)o1 | inconclusive [inhibitor, full curve, poor fit] | 
38 | Cc1ccc(CN2CCN(CC(=O)N/N=C/c3ccccc3F)CC2)cc1 |  | inactive: -1.09%
39 | Cc1cc(C)cc(N(CCC#N)C(=O)COC(=O)CNC(=O)c2sc3ccccc3c2Cl)c1 | inconclusive [inhibitor, partial curve, poor fit] | 
40 | Cc1nn(-c2cc(C(F)(F)F)ccc2Cl)c2nc(C(Cl)(Cl)Cl)[nH]c(=O)c12 |  | inactive: 0.577%
41 | CCC(=O)Nc1sc2c(c1C(N)=O)CCN(C(C)=O)C2 | inconclusive [inhibitor, full curve, poor fit] | 
42 | CCOC(=O)N1CCN(Cc2nc3cc(NC(=O)CC(C)C)ccc3n2CC)CC1 |  | inactive: -6.45%
43 | O=[N+]([O-])c1cccnc1Oc1ccc(C2SCCS2)cc1 |  | inactive: -1.32%
44 | CCCCN(C(=O)c1cccc(-n2cnnn2)c1)c1c(N)n(CC(C)C)c(=O)[nH]c1=O | inconclusive [inhibitor, full curve] | 

Row | SMILES | Potency | activity change, negative = inhibition
45 | COc1ccccc1C(=O)Nn1cnnc1 | inconclusive [inhibitor, full curve, poor fit] | 
46 | O=C1/C(=C/c2ccco2)N=C(N2CCCCC2)N1c1ccccc1 | inconclusive [inhibitor, full curve, poor fit] | 
47 | Cc1ccc(NC(=O)CCC(C(=O)O)N2C(=O)c3ccccc3C2=O)cc1 (stereo not given) | inconclusive [inhibitor, full curve, poor fit] | 
48 | CCCN(CC(=O)Nc1ccccc1C)C(=O)COc1c(C)cccc1C | inconclusive [inhibitor, single point] | 
49 | CCOc1ccccc1C(=O)N(C)Cc1cc2ccccc2[nH]c1=O | inconclusive [inhibitor, partial curve, poor fit] | 
50 | COc1ccc(-n2nc(C(=O)NCC(=O)N3CCCC(C)C3)c3ccccc3c2=O)cc1 (stereo not given) | inconclusive [inhibitor, full curve] | 
51 | Cc1ccc(S(=O)(=O)N2CCN(CC(=O)N(CC(C)C)c3c(N)n(CC(C)C)c(=O)[nH]c3=O)CC2)c(C)c1 | inconclusive [inhibitor, full curve, poor fit] | 
52 | COc1ccc(CNC(=O)c2ccc(NC(=O)N3CCSc4ncccc43)cc2)c(OC)c1 |  | inactive: 2.64%
53 | O=C1NC(c2ccc(-c3ccccc3[N+](=O)[O-])o2)C(C(=O)c2ccccc2)C(O)(C(F)(F)F)N1 (stereo not given) | inconclusive [inhibitor, partial curve] | 
54 | COc1ccc(OC)c(-c2nnc3n(CCc4ccccc4)c(=O)c4ccccc4n23)c1 |  | inactive: 18.7%
55 | COc1cc(SC)ccc1C(=O)NCC1CCCO1 (stereo not given) | inconclusive [inhibitor, partial curve] | 
56 | CCOC(=O)C1=C(C)NC(C)=C(C(=O)OCC)C1C(=O)O | inconclusive [inhibitor, partial curve] | 
57 | CCOc1ccc(CNC(=S)N/N=C/c2ccc(OC)c(OC)c2)cc1 |  | inactive: -10.7%
58 | CC(=O)Nc1ccc2nc(CN3CCN(CC(C)C)C(CCO)C3)ccc2c1 (stereo not given) |  | inactive: 5.73%
59 | COc1cc(NC(=O)c2nc(-c3ccc(Cl)cc3)n3c2CCCCC3)cc(OC)c1OC |  | inactive: 14.8%
60 | COc1ccc(NC(=O)CSC2=NCCN2)cc1 | inconclusive [inhibitor, full curve, poor fit] | 
61 | COC(=O)c1ccc(NC(=S)Nc2ccccc2)cc1 |  | inactive: 5.38%
62 | COc1ccc(CNC(=O)Cn2nc(Cc3cccnc3)c3ccccc3c2=O)cc1 | inconclusive [inhibitor, full curve, poor fit] | 
63 | CN(C)C(=O)/C(=C\c1ccc(-c2cccc([N+](=O)[O-])c2)o1)NC(=O)c1ccccc1 | inconclusive [inhibitor, full curve] | 
64 | CCOC(=O)c1cccc(NC(=O)C2CCN(S(=O)(=O)c3c(C)noc3/C=C/c3ccc(C)cc3)CC2)c1 |  | inactive: 32.4%
65 | O=C(Nc1ccc(F)cc1)C1CCC(CNc2c(N3CCCCC3)c(=O)c2=O)CC1 (stereo not given) |  | inactive: 9.49%
